PubChem BioAssay (NCATS)
This list was built around the results that the source calls inconclusive (neither active nor inactive); the mix of calls is not that of the screen. Where a call stands in place of a potency, no number is given. A potency beside an inconclusive call is a rough fit, not a confirmed value. The source made the active and inactive calls. The call rests on the fitted dose curve; in most records, active means well fitted inhibition curve with a large enough effect; inconclusive means small, poorly fitted or top-dose-only effect; inactive means no such curve, though single readings can be large or run the other way.

target: Retinaldehyde dehydrogenase 3 (Homo sapiens) (UniProt P47895); experiment: qHTS for Inhibitors of the Aldehyde Dehydrogenase Family (ALDH1A3) Confirmatory screens (AID 2061311); settings: ALDH inhibition qHTS; series mostly up to 46 µM; further: nearly all actives have a fitted effect of over 60% in size
Potency means the concentration at half of the fitted maximal effect; tags describe the fitted curve by direction and shape.

Row | Structure (SMILES) | Potency
1 | O=C(CSc1nc(-c2ccco2)nc2cc(=O)[nH]n12)Nc1ccccc1F | inconclusive: 7.94 µM [inhibitor, partial curve, poor fit]
2 | Cc1cc(Br)ccc1NC(=O)CCNS(=O)(=O)c1cccc2nonc12 | inactive
3 | CCCOc1ccc(C(=O)Nc2ccc(NC(=O)c3cccc(Cl)c3)cc2)cc1 | inactive
4 | O=C(CSc1nc2ncccc2[nH]1)Nc1cc(F)ccc1F | inactive
5 | COc1ccc(N2CCN(C(=O)CS(=O)(=O)c3cccc4nsnc34)CC2)cc1 | inactive
6 | N#Cc1nc(-c2ccc(COc3ccccc3)o2)oc1N1CCN(c2ccccc2)CC1 | inactive
7 | COc1ccc(Cc2nc3nccc(-c4cccs4)n3n2)cc1 | inconclusive: 22.4 µM [inhibitor, partial curve]
8 | O=C(OCc1cc(=O)n2nc(C3CC3)sc2n1)c1ccc(F)cc1 | inconclusive: 28.2 µM [inhibitor, partial curve, poor fit]
9 | CCN(CC)c1cc(CCC(=O)NCc2ccc(N3CCOCC3)cc2)ccn1 | inconclusive: 31.6 µM [inhibitor, single point]
10 | COc1ccc(NC(=O)C2CCCN(c3cnn(Cc4ccccc4)c(=O)c3)C2)cc1OC (centres undefined) | inconclusive: 31.6 µM [inhibitor, single point]
11 | Fc1cccc(Cc2noc(-c3nc(-c4ccccc4)no3)n2)c1 | inactive
12 | CCCOc1cccc(C(=O)Nc2cccc(NC(=O)c3ccc(C(C)(C)C)cc3)c2)c1 | inconclusive: 11.2 µM [inhibitor, partial curve]
13 | CN(C(=O)c1cnc2n[nH]c(-c3ccccc3)c2n1)c1ccccc1 | inactive
14 | COc1ccccc1-c1cnc2n[nH]c(-c3ccccc3)c2n1 | inconclusive: 12.6 µM [inhibitor, full curve, poor fit]
15 | O=C(NCCS(=O)(=O)N1CCN(c2ccccc2)CC1)C(c1ccccc1)c1ccccc1 | inconclusive: 22.4 µM [inhibitor, partial curve]
16 | Cc1ccc(-c2cc(C(=O)NCC(F)F)nn3cnnc23)cc1 | inconclusive: 31.6 µM [inhibitor, partial curve]
17 | Cc1ccc([S+](=O)([O-])c2nnn3c2nc(N2CCC(F)CC2)c2ccccc23)cc1 | inactive
18 | COc1ccc(C(=O)Nc2cc(-c3cccnc3)nn2-c2ccccc2)cc1 | inconclusive: 25.1 µM [inhibitor, partial curve]
19 | O=C(CC1CCOCC1)NCc1ccc(N2CCOCC2)cc1 | inactive
20 | COc1ccc(Cl)cc1NC(=O)c1cc2nc(-c3ccc(C)cc3)cc(C(F)(F)F)n2n1 | inactive
21 | CC[C@H]1CN(C(=O)Nc2cccc(OC)c2)CC[C@H]1CC(=O)NCc1ccccc1 | inactive
22 | COc1cc(F)ccc1-c1cnc2n[nH]c(-c3sccc3C)c2n1 | inactive
23 | O=C(CSc1nc(-c2cccs2)nc2cc(=O)[nH]n12)Nc1cccc(C(F)(F)F)c1 | inactive
24 | CCc1ccc([S+](=O)([O-])c2nnn3c2nc(N2CCC(F)CC2)c2ccccc23)cc1 | inconclusive: 3.98 µM [inhibitor, full curve]
25 | Cc1noc(C)c1-c1cnc(Nc2ccc(F)c(Cl)c2)c2c1CCO2 | active: 31.6 µM
26 | COc1ccc(-c2nnc3ccc(NCCc4ccccc4)nn23)nc1 | active: 20 µM
27 | O=[S+]([O-])(c1ccccc1)c1nnn2c1nc(N1CCC(F)CC1)c1ccccc12 | inactive
28 | O=C(Cn1cnc2onc(-c3ccc(Cl)cc3)c2c1=O)Nc1ccc(F)cc1 | inactive
29 | O=C(NCc1ccc(F)cc1)c1nc(-c2ccc(Cl)nc2)c2cnccn12 | inactive
